# Measured values published in the supplement of paper PMC3334620.
# Over roughly 33,000 sequences, “E-score (-0.5 to 0.5)” has its median near -0.053; the highest 2% begin near 0.37. The list shows a part of the results.
# Biological target: Hap1 (UniProt P0CE41)
# Assay: PBM E-score (8-mer binding enrichment) (E-score (-0.5 to 0.5)); higher = stronger / more preferred TF binding; most listed sequences are background and not binding sites
# Conditions: protein concentration: 200 nM; construct: GST-DNA-binding domain
# Outline: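 Universal all-10-mer Agilent arrays, fresh or stripped once, were converted to double-stranded form by primer extension. GST-tagged yeast transcription factors from PURExpress in vitro transcription/translation, full-length or DNA-binding domain only, were applied at about 100-200 nM and detected with fluorescent anti-GST. After masliner normalisation, the Universal PBM Analysis Suite scored each ungapped eight-base word together with its reverse complement by E-score.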
# UniProt P0CE41, sequence (P0CE41 whole entry): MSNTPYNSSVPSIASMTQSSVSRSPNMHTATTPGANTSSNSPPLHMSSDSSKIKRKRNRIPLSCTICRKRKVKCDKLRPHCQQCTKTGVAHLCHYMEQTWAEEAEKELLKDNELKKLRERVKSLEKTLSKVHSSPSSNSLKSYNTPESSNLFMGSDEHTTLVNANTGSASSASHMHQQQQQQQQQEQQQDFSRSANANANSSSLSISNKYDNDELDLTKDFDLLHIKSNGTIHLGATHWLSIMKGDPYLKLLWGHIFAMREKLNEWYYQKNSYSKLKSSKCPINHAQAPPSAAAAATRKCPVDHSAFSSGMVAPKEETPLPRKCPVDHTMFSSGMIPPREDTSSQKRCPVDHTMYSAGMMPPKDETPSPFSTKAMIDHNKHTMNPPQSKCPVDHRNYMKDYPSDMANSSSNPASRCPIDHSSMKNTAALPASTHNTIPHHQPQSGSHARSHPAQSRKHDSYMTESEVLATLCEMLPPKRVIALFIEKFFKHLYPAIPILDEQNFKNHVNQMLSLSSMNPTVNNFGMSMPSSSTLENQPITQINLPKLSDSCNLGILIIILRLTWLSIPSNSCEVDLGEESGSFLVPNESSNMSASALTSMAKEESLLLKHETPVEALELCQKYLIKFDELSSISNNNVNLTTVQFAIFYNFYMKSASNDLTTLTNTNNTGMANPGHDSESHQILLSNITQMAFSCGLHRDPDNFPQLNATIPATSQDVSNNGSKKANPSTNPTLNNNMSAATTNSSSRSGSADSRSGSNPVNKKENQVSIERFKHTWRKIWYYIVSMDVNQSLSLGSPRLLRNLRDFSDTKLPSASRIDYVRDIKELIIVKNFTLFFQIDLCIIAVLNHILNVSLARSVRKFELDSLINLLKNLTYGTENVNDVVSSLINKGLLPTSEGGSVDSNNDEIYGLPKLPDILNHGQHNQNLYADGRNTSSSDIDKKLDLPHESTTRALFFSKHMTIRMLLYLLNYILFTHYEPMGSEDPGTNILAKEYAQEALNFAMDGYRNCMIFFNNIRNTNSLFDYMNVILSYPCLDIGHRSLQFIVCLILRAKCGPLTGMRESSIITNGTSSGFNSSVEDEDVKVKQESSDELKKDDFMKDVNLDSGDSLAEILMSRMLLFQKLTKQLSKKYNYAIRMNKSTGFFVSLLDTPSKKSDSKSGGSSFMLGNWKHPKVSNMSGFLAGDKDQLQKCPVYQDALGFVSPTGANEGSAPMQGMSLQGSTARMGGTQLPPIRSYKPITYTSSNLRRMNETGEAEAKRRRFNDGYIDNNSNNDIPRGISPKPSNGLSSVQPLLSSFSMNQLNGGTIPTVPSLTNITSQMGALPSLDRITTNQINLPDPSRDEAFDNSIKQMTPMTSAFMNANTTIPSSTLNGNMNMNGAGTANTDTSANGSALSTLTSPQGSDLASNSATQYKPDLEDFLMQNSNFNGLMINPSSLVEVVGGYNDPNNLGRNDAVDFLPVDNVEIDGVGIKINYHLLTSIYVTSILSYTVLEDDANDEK
row,Sequence,PBM E-score
1,ATGTAACA,-0.14
2,AAAGGAAA,-0.0768
3,CTCGGCGA,0.383
4,GCTATAAC,0.0749
5,AGGAAGGC,-0.189
6,CCCCACCC,0.207
7,CCCTACGC,-0.113
8,CTTCAGAA,-0.107
9,GCCTGAAC,-0.0686
10,GGGCCACC,0.0898
11,CCATATTC,0.0415
12,ATCAGCCC,-0.153
13,CAATGTCC,0.0735
14,ACCTTCGG,0.247
15,ACGGCTCT,0.122
16,CAATAAGA,-0.112
17,ATCCCCGA,0.44
18,ATACTTCA,-0.22
19,ATCTTAAA,-0.0261
20,GAGCCCCC,-0.174
21,CCTTGCTA,-0.27
22,CAAGCGGA,0.134
23,AAAGGCAT,-0.125
24,AGCTGAGC,-0.0676
25,CTGCGATC,-0.179

row,Sequence,PBM E-score
1,GGAGGCGA,-0.0142
2,AATCCTTG,0.0432
3,ATTTGCTG,0.0215
4,TCGCCAAA,-0.0842
5,CCTCATTA,-0.165
6,AAGTCAAC,-0.35
7,CAGCGACC,-0.0029
8,AATATCAC,0.0531
9,AGTTCTCG,0.0632
10,CAGGTGGA,-0.23
11,TGTAACAA,-0.24
12,ATCAGAAA,-0.184
13,AACGCCCC,0.128
14,ATTCTCAG,-0.143
15,AATAGGGC,0.0175
16,ACTTTCAT,-0.167
17,CTAGTGAG,-0.16
18,ATCTTAAG,-0.0593
19,CTTAACTA,-0.0648
20,CGTCTGAC,-0.045
21,GCTCCACA,-0.189
22,GAAAAAGC,0.0726
23,ACGAAAAG,-0.0325
24,CAACTGAC,-0.147
25,ATCACAAC,-0.0371

row,Sequence,PBM E-score
1,TCTGCAAA,-0.133
2,AGAGCCTA,-0.233
3,AGCGCCGA,0.372
4,GTACATAC,0.00046
5,GCAATAGA,-0.147
6,AACACGTT,-0.055
7,CTCCTTTA,-0.167
8,ATGCTATA,-0.224
9,AAGAAATA,-0.0989
10,AAAGTAAA,-0.134
11,ATGAGTAA,-0.176
12,AGAAAGTG,-0.151
13,ATTGCATC,-0.091
14,CTTTTCCC,-0.116
15,GGGGCACC,-0.0243
16,ATACAATG,-0.0139
17,AATGGGAA,-0.239
18,AACATGGC,-0.125
19,CGGTGAAA,0.337
20,AAGAAGAT,0.00478
21,GATTAAGC,0.24
22,ACATAAGT,-0.0829
23,AAACTTCA,-0.205
24,CTCCCCGA,0.247
25,CAAATCTG,-0.304

row,Sequence,PBM E-score
1,AATTTAGC,0.036
2,ACGCGACG,-0.0767
3,CACTACAA,-0.0996
4,AAAGTTCT,0.0513
5,ACGGCGAT,0.241
6,AAAGACCG,0.345
7,GAAACTGA,-0.138
8,CCGACCTA,0.226
9,GCACTCCC,-0.117
10,ATCGAGAT,-0.0329
11,CGCCTTGA,-0.0767
12,CGTCGCTA,-0.121
13,TCGGTCAA,0.277
14,TCTGACAA,-0.203
15,CCGTTCCA,0.172
16,CGCAACTA,0.122
17,AGCTATTA,-0.104
18,GAGCCTAA,-0.0722
19,GAAGGCGC,0.0107
20,ATAATTCA,-0.0771
21,CGTTAACG,0.291
22,CAAGAACC,-0.132
23,TGCCGTAA,0.0155
24,AGAGTGTG,-0.119
25,ACAGTTAG,-0.113

row,Sequence,PBM E-score
1,ACACATAG,-0.23
2,GACTCGTA,-0.04
3,CACTATGG,-0.247
4,CTTTACGC,-0.096
5,CAATCCAG,-0.0698
6,CAAAGCGG,0.0171
7,AGCGTCAT,-0.139
8,CCCATACA,-0.257
9,ACCTAAAC,0.0175
10,ATGCCTGG,-0.213
11,GCTACGTA,-0.189
12,ACTTGCAT,0.0174
13,ATTGCAGC,-0.121
14,ACAGCGGG,0.00133
15,CAGAACGA,-0.181
16,CATAGGAC,-0.18
17,AGATCGCC,-0.00144
18,GGGGAAAA,0.0838
19,AGAAACCA,-0.0938
20,ATCCTAGC,-0.233
21,GTTCTACA,-0.231
22,CGGCTGCA,0.195
23,GCCACCGC,0.00177
24,ATCGGTTA,0.332
25,GAAGAAAA,-0.0242

row,Sequence,PBM E-score
1,CTTTATTC,-0.0165
2,CCCTGGCC,-0.191
3,CGAGTCTC,-0.0636
4,CGACCTAA,0.161
5,GTTTATAA,0.222
6,ACCCGTGC,-0.0971
7,CCTGCAGG,-0.0801
8,CAAGATTG,-0.185
9,CATAGTCA,-0.282
10,AGAAGAGG,-0.0709
11,ATAACTAC,0.116
12,CACCCCTC,-0.0955
13,CATTTTGA,-0.222
14,CGACCCCG,0.196
15,CGCTTAAA,-0.0379
16,AGACTACG,-0.0441
17,GAGGCTCA,-0.217
18,GCATACAC,-0.118
19,AAATATAG,-0.0275
20,CCTTTATC,0.109
21,CTCCCAGC,-0.0749
22,TAAGGATA,-0.0188
23,ATTATTCA,0.0104
24,GCTGGGAA,0.156
25,ATCTCTCA,0.0459

row,Sequence,PBM E-score
1,TAAGTGTA,-0.282
2,CGCACCCC,0.0616
3,TAACAGAA,-0.185
4,TTAGCCAA,-0.222
5,CGTAACGA,-0.188
6,CCGGGTAG,0.282
7,CGTTCGCA,-0.252
8,ACTGCGGC,0.109
9,CGGTTGCC,0.139
10,CGGAATAG,0.245
11,TATCTTCA,-0.164
12,AATGTTAG,-0.156
13,CACAAGCG,-0.186
14,GCTCCTGA,0.156
15,GAGAGAAC,-0.174
16,ACTGGAAT,-0.223
17,CGCAGGGC,-0.0256
18,CACAACTA,0.0154
19,ATGGTTGA,-0.104
20,ACGGCCAC,0.109
21,CGCGTGGC,-0.0903
22,AATTCAGG,0.049
